This note sets out measurements from PMC4336329 (PLoS ONE, 2015).

The structures appear in SMILES notation. Hit rate of the full screen: of about 310,000 compounds, about 14,000 (4.5%) showed an effect of 50% or more. Effects have a minus sign here. The list shows a part of the results.
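Note: peak tail current of the secondary pulse compared with the same well before compound.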

The target of the assay is human ether-à-go-go-related gene (hERG) potassium channel (human, UniProt Q12809). The assay is described as follows: primary screen, population patch clamp on CHO cells stably expressing hERG.
Chain of human ether-à-go-go-related gene (hERG) potassium channel (Q12809 whole entry, looked up): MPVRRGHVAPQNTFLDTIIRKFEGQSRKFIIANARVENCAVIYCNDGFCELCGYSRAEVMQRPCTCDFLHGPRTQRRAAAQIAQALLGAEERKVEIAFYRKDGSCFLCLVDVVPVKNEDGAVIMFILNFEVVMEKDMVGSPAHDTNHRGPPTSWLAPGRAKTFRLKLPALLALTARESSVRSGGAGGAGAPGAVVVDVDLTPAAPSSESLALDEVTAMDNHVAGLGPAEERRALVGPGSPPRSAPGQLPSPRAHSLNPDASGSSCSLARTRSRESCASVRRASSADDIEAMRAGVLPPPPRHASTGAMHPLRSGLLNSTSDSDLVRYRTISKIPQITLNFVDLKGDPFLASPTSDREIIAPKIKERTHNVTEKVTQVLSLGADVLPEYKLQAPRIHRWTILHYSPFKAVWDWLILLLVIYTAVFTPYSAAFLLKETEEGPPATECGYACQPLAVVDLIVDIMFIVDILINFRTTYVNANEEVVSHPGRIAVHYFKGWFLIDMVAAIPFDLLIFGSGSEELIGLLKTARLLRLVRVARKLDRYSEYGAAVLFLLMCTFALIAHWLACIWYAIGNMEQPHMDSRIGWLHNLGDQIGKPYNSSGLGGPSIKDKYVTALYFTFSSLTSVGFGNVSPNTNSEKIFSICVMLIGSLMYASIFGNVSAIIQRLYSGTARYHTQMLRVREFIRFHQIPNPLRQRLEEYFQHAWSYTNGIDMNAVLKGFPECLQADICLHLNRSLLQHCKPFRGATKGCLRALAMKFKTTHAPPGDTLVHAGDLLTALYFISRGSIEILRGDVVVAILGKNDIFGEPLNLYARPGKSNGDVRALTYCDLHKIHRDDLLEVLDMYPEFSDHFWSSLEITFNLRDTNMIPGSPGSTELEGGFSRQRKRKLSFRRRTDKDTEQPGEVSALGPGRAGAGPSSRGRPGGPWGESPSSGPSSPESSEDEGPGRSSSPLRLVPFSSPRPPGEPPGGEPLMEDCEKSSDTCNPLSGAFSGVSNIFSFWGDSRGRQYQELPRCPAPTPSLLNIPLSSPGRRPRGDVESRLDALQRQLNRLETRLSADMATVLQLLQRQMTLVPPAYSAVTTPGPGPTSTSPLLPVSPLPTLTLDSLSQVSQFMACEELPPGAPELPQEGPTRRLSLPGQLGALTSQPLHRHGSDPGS
As to `C=C(C)CNC(=O)c1ccc(OC2CCN(C(=O)COC)CC2)cc1`, the “hERG current change (%, negative = inhibition) at 10uM” value is reported as 19.2%. The value for `CCCCOc1ccc(C(=O)N/N=C/c2ccc(OCCN3CCCCC3)c(OC)c2)cc1` was -45.3%; that for `O=C1N(Cc2ccccc2)CCCC12CCCN(Cc1ccccc1)C2=O` was -3.75%. The value for `O=C(NCC1CCCO1)c1cc(-c2ccccc2)nc2ccccc12` (centres unmarked) was -4.4%; that for `Cl.NC(CO)C12CC3CC(CC(C3)C1)C2` (centres unmarked) was 9.97%; that for `O=C(O)c1ccc(CN2C(=O)CSC2=S)cc1` was -6.78%.

Turning to `Cc1cccc(N2CCN(C(=O)C3CC(=O)N(c4ccc5c(c4)OCCO5)C3)CC2C)c1` (centres unmarked), the “hERG current change (%, negative = inhibition) at 10uM” value is -6.83%.

Consider `O=C(CSc1ccc2nnc(-c3ccccn3)n2n1)Nc1ccc(F)cc1F`, for which the “hERG current change (%, negative = inhibition) at 10uM” value was -30.4%. In the case of `CC(=O)Nc1cc2nn(-c3ccccc3)nc2cc1C` it was 17.2%. The value for `O=C(Cc1ccccc1F)Nc1nc2ccccc2[nH]1` was 6.36%; that for `Cc1ccc(C(=O)N2CCC(C(=O)NCc3cccnc3)CC2)cc1` was -7.53%; that for `O=C1C2C3C=CC(C3)C2C(=O)N1c1n[nH]c(-c2cccnc2)n1` (centres unmarked) was 11.1%.

As for `COc1cc(NC(=O)CSc2nc3cc(C)ccc3cc2C)c(C(=O)O)cc1OC`, the “hERG current change (%, negative = inhibition) at 10uM” value worked out at 2.83%. The value for `COc1cccc(NS(=O)(=O)c2c(C)cc(C)cc2C)c1` was -3.47%; that for `C=CCc1cccc2cc(C(=O)N(C)C)c(=O)oc12` was 1.84%; that for `COc1ccc(C)cc1N(CC(=O)N1CCCC1)S(=O)(=O)c1ccccc1` was -0.0589%. In the case of `Cc1cc2cc3c(cc2nc1SCC(=O)OC(C)C)OCCO3` it was -5.56%. In the case of `Nn1c(SCC(=O)Nc2nccs2)nnc1-c1cccnc1` it was 0.353%. Regarding `Cc1ccc(CN2CCc3[nH]c(=S)[nH]c(=O)c3C2)cc1`, the “hERG current change (%, negative = inhibition) at 10uM” value stood at 19%.

Regarding `CCn1c(CC(=O)Nc2ccc(C)cc2)nnc1SCC(=O)N1CCOCC1`, the “hERG current change (%, negative = inhibition) at 10uM” value is given as 6.97%. In the case of `CCOc1ccc(Cl)cc1S(=O)(=O)NCc1ccccn1` it was 3.15%. The value for `Cc1ccc2c(c1)C1CC(C)(O2)N(c2cccc(C(=O)NC3CCN(Cc4ccccc4)CC3)c2)C(=O)N1` (centres unmarked) was -3.24%; that for `CCN(CC)C(=O)CSc1nc2ccccc2n1CC(=O)N1CCN(c2ccccc2OC)CC1` was 1.84%; that for `COC(=O)C1=C(c2ccc(OC(F)(F)F)cc2)C[C@@H]2CC[C@H]1N2C(=O)NCCOc1ccccc1` was -14.4%. For `C/C(CC(=O)Nc1ccc(Cl)c(Cl)c1)=N\NC(=O)C(=O)N1CCCCC1`, the “hERG current change (%, negative = inhibition) at 10uM” value is listed as 9.57%. In the case of `CCOC(=O)c1ccc(N=C2C(=S)N(c3ccc(C(=O)OCC)cc3)C(=N)N2/N=C/c2ccccc2)cc1` it was -52.7%; in that of `Cc1cccc(NC(=O)Nc2c(C)[nH]c(=O)[nH]c2=O)c1C`, 13%. The value for `CC(NC(=O)CC1Sc2ccccc2NC1=O)c1ccccc1` (centres unmarked) was 4.03%; that for `COc1ccc2oc(C)c(C(=O)c3ccccc3)c2c1` was -7.34%; that for `CCOC(=O)/C=C1\NC(C)(C)Cc2cc(OC)c(OC)cc21` was 1.72%. The value for `COCCn1c(SC(C)C(=O)Nc2ccc(Cl)cn2)nnc1-c1ccncc1` (centres unmarked) was 4.13%; that for `CCC(=O)N/N=C/c1ccc(-c2ccc([N+](=O)[O-])cc2)o1` was 4.5%. For `Cn1ncc2c(Nc3ccccc3Br)ncnc21`, the “hERG current change (%, negative = inhibition) at 10uM” value worked out at 9.32%. In the case of `O=C1C2CCCN2C(=S)N1Cc1ccccc1` (centres unmarked) it was 13%; in that of `Cc1ccccc1S(=O)(=O)Cc1ccc(C(=O)NCc2ccco2)o1`, -32.2%; in that of `COc1ccc(C(=O)NC(=S)N2CCC(C)CC2)cc1Br`, 17.2%.

As to `CN(Cc1ccccc1)C(=O)COC(=O)c1ccc(Cl)cc1N`, the “hERG current change (%, negative = inhibition) at 10uM” value is given as -4.58%. In the case of `CCCCCCCC(=O)N1CCN(c2cc3c(cc2F)c(=O)c(C(=O)O)cn3CC)CC1` it was -25.1%; in that of `Cc1nc2ccc(Cl)cc2c(=O)n1-c1cccc(Cl)c1`, 3.78%.

Take `COC(=O)c1sc(NC(=O)/C=C/c2ccc(C)cc2)nc1C`: the “hERG current change (%, negative = inhibition) at 10uM” value is 13.9%. The value for `COC(=O)c1ccccc1NC(=O)CSc1nnc(C(CO)NC(=O)c2ccccc2)n1C` (centres unmarked) was -3.17%; that for `COc1ccc(-c2cc(C3CC3)nc(SCC(=O)c3cccs3)c2C#N)cc1` was 11.4%; that for `CCCCC(=O)Nc1ccc(NC(=S)NC(=O)CCCCl)cc1OC` was 8.67%. In the case of `O=C(NC(=S)NCc1ccccc1)c1ccc(Br)o1` it was -7.42%; in that of `Cc1nn(Cc2c(F)c(F)c(F)c(F)c2F)c(C)c1NC(=O)c1cccc(COc2ccc(Cl)cc2)c1`, 2.49%; in that of `CC(Sc1ccccc1)C(=O)NN=C1CCCC1` (centres unmarked), 11.7%. In the case of `COc1ccc(C2C(Oc3ccccc3C)C(=O)N2Cc2ccc(F)cc2)cc1OC` (centres unmarked) it was -12.5%; in that of `Cl.N[C@@H](Cc1ccccc1)c1nnc(SC/C=C/c2ccccc2)o1`, -13.1%; in that of `CC(C)(C)c1ccc(/C=N/NC(=O)CN2CCS(=O)(=O)CC2)cc1`, -9.12%. For the molecule `O=C(OCn1nnc2ccccc2c1=O)c1cc(-c2ccccc2)nc2ccccc12`, the “hERG current change (%, negative = inhibition) at 10uM” value came out at 6.74%. In the case of `OCCC1CN(Cc2ccc(Oc3ncccn3)cc2)CCN1C1CCCC1` (centres unmarked) it was 8.16%; in that of `CCC1CCCCN1CCCNC(=O)CS(=O)Cc1nc(-c2ccc(OC)c(OC)c2)oc1C` (centres unmarked), 5.21%. `CN(C)S(=O)(=O)c1cccc(COC(=O)CCNC(=O)c2ccc([N+](=O)[O-])cc2)c1`: the “hERG current change (%, negative = inhibition) at 10uM” value is -55.2%.

For `COc1ccc(-c2nnc(NC(=O)Cc3ccccc3)o2)cc1`, the “hERG current change (%, negative = inhibition) at 10uM” value amounted to 18.2%. The value for `CC1=NN(C(=O)Cc2ccc(C)cc2)C(O)(c2cccnc2)C1` (centres unmarked) was 10.1%. In the case of `Cc1ccc(/C=C(\C#N)C(=O)NCCN2CCOCC2)cc1` it was 11.5%.
